# In the supplement of paper PMC8728848:
# The list shows a part of the results.
# B1: Clec2 (Mus musculus), Q9JL99 (protein)
# chain: MQDEDGYITLNIKPRKQALSSAEPASSWWRVMALVLLISSMGLVVGLVALGIMSVTQQKYLLAEKENLSATLQQLAKKFCQELIRQSEIKTKSTFEHKCSPCATKWRYHGDSCYGFFRRNLTWEESKQYCTEQNATLVKTASQSTLDYIAERITSVRWIGLSRQNSKKDWMWEDSSVLRKNGINLSGNTEENMNCAYLHNGKIHPASCKERHYLICERNAGMTRVDQLL
# Columns and labels:
# Test in all cases: glycan array binding signal (z-score within array); higher = stronger binding
# Details in all cases: glycan notation: IUPAC condensed, linker removed
# [1] = biological target: Man(a1-2)Man(a1-3)[Man(a1-2)Man(a1-6)]Man
# Summary of the method: (§1)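 Glycan array data came from 3228 arrays in the Consortium for Functional Glycomics database, and only arrays with an available protein sequence were kept. Glycan names were put into IUPAC-condensed notation, and columns mapping to the same glycan were averaged. The binding signal is a within-array Z-score, averaged across arrays of one protein sequence run at different concentrations or buffers and across linkers. A negative Z-score can be read as non-binding.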
# [2] = biological target: Man(a1-2)Man(a1-3)[Man(a1-2)Man(a1-6)]Man(a1-6)[Man(a1-2)Man(a1-2)Man(a1-3)]Man
# Summary of the method: as §1
# [3] = biological target: Man(a1-2)Man(a1-3)[Man(a1-2)Man(a1-6)]Man(a1-6)[Man(a1-2)Man(a1-2)Man(a1-3)]Man(b1-4)GlcNAc(b1-4)GlcNAc
# Summary of the method: as §1
# [4] = biological target: Man(a1-2)Man(a1-3)[Man(a1-6)]Man(a1-6)[Man(a1-2)Man(a1-3)]Man(b1-4)GlcNAc(b1-4)GlcNAc
# Summary of the method: as §1
# [5] = biological target: Man(a1-2)Man(a1-6)[Man(a1-3)]Man(a1-6)[Man(a1-2)Man(a1-2)Man(a1-3)]Man
# Summary of the method: as §1
# [6] = biological target: Man(a1-2)Man(a1-6)[Man(a1-3)]Man(a1-6)[Man(a1-2)Man(a1-2)Man(a1-3)]Man(b1-4)GlcNAc(b1-4)GlcNAc
# Summary of the method: as §1
# Man(a1-3)[Man(a1-6)]Man = biological target: Man(a1-3)[Man(a1-6)]Man
# Summary of the method: as §1
# [7] = biological target: Man(a1-3)[Man(a1-6)]Man(a1-6)[Man(a1-2)Man(a1-3)]Man(b1-4)GlcNAc(b1-4)GlcNAc
# Summary of the method: as §1
# [8] = biological target: Man(a1-3)[Man(a1-6)]Man(a1-6)[Man(a1-3)]Man
# Summary of the method: as §1
# [9] = biological target: Man(a1-3)[Man(a1-6)]Man(a1-6)[Man(a1-3)]Man(b1-4)GlcNAc(b1-4)GlcNAc
# Summary of the method: as §1
# [10] = biological target: Man(a1-3)[Man(a1-6)]Man(b1-4)GlcNAc(b1-4)GlcNAc
# Summary of the method: as §1
# [11] = biological target: Man(a1-3)[Man(a1-6)]Man(b1-4)GlcNAc(b1-4)[Fuc(a1-6)]GlcNAc
# Summary of the method: as §1
# Man(a1-6)Man = biological target: Man(a1-6)Man
# Summary of the method: as §1
# Man(b1-4)GlcNAc = biological target: Man(b1-4)GlcNAc
# Summary of the method: as §1
# MurNAc(b1-4)GlcNAc = biological target: MurNAc(b1-4)GlcNAc
# Summary of the method: as §1
# Neu5Ac(a2-3)Gal = biological target: Neu5Ac(a2-3)Gal
# Summary of the method: as §1
# [12] = biological target: Neu5Ac(a2-3)Gal(b1-3)GalNAc
# Summary of the method: as §1
# [13] = biological target: Neu5Ac(a2-3)Gal(b1-3)GalNAc(b1-3)Gal(a1-4)Gal(b1-4)Glc
# Summary of the method: as §1
# [14] = biological target: Neu5Ac(a2-3)Gal(b1-3)GalNAc(b1-4)[Neu5Ac(a2-3)]Gal(b1-4)Glc
# Summary of the method: as §1
# [15] = biological target: Neu5Ac(a2-3)Gal(b1-3)GalNAc(b1-4)[Neu5Ac(a2-8)Neu5Ac(a2-3)]Gal(b1-4)Glc
# Summary of the method: as §1
# [16] = biological target: Neu5Ac(a2-3)Gal(b1-3)GalNAc6S
# Summary of the method: as §1
# [17] = biological target: Neu5Ac(a2-3)Gal(b1-3)GlcNAc
# Summary of the method: as §1
# [18] = biological target: Neu5Ac(a2-3)Gal(b1-3)GlcNAc(b1-2)Man
# Summary of the method: as §1
# [19] = biological target: Neu5Ac(a2-3)Gal(b1-3)GlcNAc(b1-2)Man(a1-3)[GlcNAc(b1-4)][Neu5Ac(a2-3)Gal(b1-3)GlcNAc(b1-2)Man(a1-6)]Man(b1-4)GlcNAc(b1-4)GlcNAc
# Summary of the method: as §1
# [20] = biological target: Neu5Ac(a2-3)Gal(b1-3)GlcNAc(b1-2)Man(a1-3)[Neu5Ac(a2-3)Gal(b1-3)GlcNAc(b1-2)Man(a1-6)]Man(b1-4)GlcNAc(b1-4)GlcNAc
# Summary of the method: as §1
# [21] = biological target: Neu5Ac(a2-3)Gal(b1-3)GlcNAc(b1-3)Gal(b1-3)GlcNAc
# Summary of the method: as §1
# [22] = biological target: Neu5Ac(a2-3)Gal(b1-3)GlcNAc(b1-3)Gal(b1-4)GlcNAc
# Summary of the method: as §1
# [23] = biological target: Neu5Ac(a2-3)Gal(b1-3)GlcNAc(b1-3)GalNAc
# Summary of the method: as §1
# [24] = biological target: Neu5Ac(a2-3)Gal(b1-3)GlcNAc(b1-4)Gal(b1-4)Glc
# Summary of the method: as §1
# [25] = biological target: Neu5Ac(a2-3)Gal(b1-3)GlcNAc(b1-6)GalNAc
# Summary of the method: as §1
# [26] = biological target: Neu5Ac(a2-3)Gal(b1-3)GlcNAc6S
# Summary of the method: as §1
# [27] = biological target: Neu5Ac(a2-3)Gal(b1-3)[Fuc(a1-4)]GlcNAc
# Summary of the method: as §1
# [28] = biological target: Neu5Ac(a2-3)Gal(b1-3)[Fuc(a1-4)]GlcNAc(b1-3)Gal(b1-3)[Fuc(a1-4)]GlcNAc
# Summary of the method: as §1
# [29] = biological target: Neu5Ac(a2-3)Gal(b1-3)[Fuc(a1-4)]GlcNAc(b1-3)Gal(b1-4)[Fuc(a1-3)]GlcNAc
# Summary of the method: as §1
# [30] = biological target: Neu5Ac(a2-3)Gal(b1-3)[GlcNAc(b1-6)]GalNAc
# Summary of the method: as §1
# [31] = biological target: Neu5Ac(a2-3)Gal(b1-3)[Neu5Ac(a2-6)]GalNAc
# Summary of the method: as §1
# [32] = biological target: Neu5Ac(a2-3)Gal(b1-3)[Neu5Ac(a2-6)]GlcNAc(b1-3)[Fuc(a1-3)[Gal(b1-4)]GlcNAc(b1-6)]Gal(b1-4)Glc
# Summary of the method: as §1
# [33] = biological target: Neu5Ac(a2-3)Gal(b1-3)]Neu5Ac(a2-3)Gal(b1-4)]GlcNAc
# Summary of the method: as §1
binder,measurement,setting,value
B1,glycan array binding signal (z-score),[1],-0.471
same,glycan array binding signal (z-score),[2],-0.487
same,glycan array binding signal (z-score),[3],0.425
same,glycan array binding signal (z-score),[4],-1.03
same,glycan array binding signal (z-score),[5],-0.755
same,glycan array binding signal (z-score),[6],-0.729
same,glycan array binding signal (z-score),Man(a1-3)[Man(a1-6)]Man,-0.605
same,glycan array binding signal (z-score),[7],-0.015
same,glycan array binding signal (z-score),[8],-0.481
same,glycan array binding signal (z-score),[9],-0.53
same,glycan array binding signal (z-score),[10],0.205
same,glycan array binding signal (z-score),[11],-0.509
same,glycan array binding signal (z-score),Man(a1-6)Man,0.911
same,glycan array binding signal (z-score),Man(b1-4)GlcNAc,-0.379
same,glycan array binding signal (z-score),MurNAc(b1-4)GlcNAc,-0.412
same,glycan array binding signal (z-score),Neu5Ac(a2-3)Gal,0.604
same,glycan array binding signal (z-score),[12],-0.182
same,glycan array binding signal (z-score),[13],-0.646
same,glycan array binding signal (z-score),[14],0.803
same,glycan array binding signal (z-score),[15],-0.158
same,glycan array binding signal (z-score),[16],1.92
same,glycan array binding signal (z-score),[17],0.081
same,glycan array binding signal (z-score),[18],1.15
same,glycan array binding signal (z-score),[19],-0.42
same,glycan array binding signal (z-score),[20],3.51
same,glycan array binding signal (z-score),[21],-0.738
same,glycan array binding signal (z-score),[22],-0.455
same,glycan array binding signal (z-score),[23],-0.042
same,glycan array binding signal (z-score),[24],0.267
same,glycan array binding signal (z-score),[25],0.017
same,glycan array binding signal (z-score),[26],0.86
same,glycan array binding signal (z-score),[27],-0.172
same,glycan array binding signal (z-score),[28],-0.432
same,glycan array binding signal (z-score),[29],-0.075
same,glycan array binding signal (z-score),[30],-0.495
same,glycan array binding signal (z-score),[31],0.533
same,glycan array binding signal (z-score),[32],-0.885
same,glycan array binding signal (z-score),[33],0.6
